Assay results from PubChem BioAssay AID485344 (National Center for Advancing Translational Sciences (NCATS), 2010).
The whole screen tested about 340,000 compounds, of which about 6,900 (2%) were called active. No stated cut-off is given here; in the data, active means inhibition above about 30%; inactive means below that, where a call was filed. Only a part is listed here, and it is no random draw. Where no call is shown, the source filed none.

Target: D(2) dopamine receptor (Homo sapiens) (UniProt P14416)
Assay: HTS Assay for Allosteric Antagonists of the Human D2 Dopamine Receptor: Primary Screen for Antagonists; further: 0% is about no effect
Details: HEK293 TREx D2 cells, calcium flux, dopamine EC80; at 10 µM; stronger effect = higher value
Summary of the method: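 Calcium flux kinetic readout in an inducible HEK293 TREx D2 line plated overnight at 30 C. After 180 s compound exposure, an EC80 dopamine challenge follows with another 180 s kinetic read to detect antagonism.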

Chain of UniProt P14416 (P14416 whole entry, looked up): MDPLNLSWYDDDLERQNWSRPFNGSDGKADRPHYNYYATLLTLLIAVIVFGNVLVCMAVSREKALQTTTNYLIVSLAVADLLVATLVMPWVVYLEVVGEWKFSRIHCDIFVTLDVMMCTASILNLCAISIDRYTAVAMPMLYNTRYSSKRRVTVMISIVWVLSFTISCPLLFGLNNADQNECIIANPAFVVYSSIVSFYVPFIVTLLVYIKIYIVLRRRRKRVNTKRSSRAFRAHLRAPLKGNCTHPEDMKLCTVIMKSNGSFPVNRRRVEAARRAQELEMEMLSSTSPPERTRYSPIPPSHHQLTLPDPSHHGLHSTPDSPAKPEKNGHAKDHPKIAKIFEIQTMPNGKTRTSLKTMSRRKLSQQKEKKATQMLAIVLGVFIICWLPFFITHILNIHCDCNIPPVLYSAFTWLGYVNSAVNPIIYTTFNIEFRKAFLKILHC

| SMILES | inhibition |
| --- | --- |
| Oc1c(C(c2ccccc2)N2CCN(Cc3ccccc3)CC2)sc2nc(-c3ccco3)nn12 (configuration not stated) | -16.7% |
| Cc1ccc(CNC(=O)C2CCN(S(=O)(=O)N3CCC(C)CC3)CC2)cc1 | -19.1% |
| Cc1ccc(OCC(=O)Nc2c(C(=O)c3ccccc3)oc3ccccc23)cc1C | -0.353% |
| CCc1ccc(NC(=O)CC2C(=O)N(c3cccc(C)c3)C(=O)N2Cc2cccs2)cc1 (configuration not stated) | 4.65% |
| Cn1c(Cl)c(/C=N/OC(=O)c2ccc(Cl)cc2)c2ccccc21 | active: 56.1% |
| COc1cc(C(=O)Nc2ccc3nn(-c4ccc(F)cc4)nc3c2)cc(OC)c1OC | 4.33% |
| CCCCn1c(=O)n(-c2ccc(Br)cc2F)c(=O)c2c3c(sc21)CN(C(C)=O)CC3 | -11.2% |
| CCOc1ccccc1NC(=O)CSc1nc2ccccc2c2nc(CCn3cncc3C)nn12 | 3.8% |
| Cc1ccc(NC2=C(c3ccc(C(F)(F)F)cc3)C(=O)c3ccccc32)cc1F | 19.2% |
| O=C(NCC(c1cccnc1)N1CCc2ccccc21)c1ccccc1Br (configuration not stated) | 13% |
| O=C(Cn1c(=O)n(Cc2ccco2)c(=O)c2cccnc21)Nc1ccccc1F | 7.18% |
| CCCN(CCC)C(=O)Cn1c(=O)n(-c2cccc(C(F)(F)F)c2)c(=O)c2c(C)c(C)sc21 | 10.4% |
| COc1cc2c(-c3ccccc3C)nc3c(c(C)nn3-c3ccccc3)c2cc1OC | -13.3% |
| CCOc1cc(C(=O)Nc2ccc(-c3nc4cc(C)ccc4o3)cc2)cc(OCC)c1OCC | 10.2% |
| O=C(Nc1ccc2nc(SCC(=O)N3CCCC3)sc2c1)c1ccccc1 | -14.5% |
| COc1ccc(NC(=O)c2ccc3nc(CCc4ccccc4)oc3c2)cc1 | 16.5% |
| CCCCC12CN3CC(C)(CN(C1)C3c1cc(Br)ccc1O)C2=O (configuration not stated) | 4.88% |
| CC(=O)c1cc(-c2ccc(F)cc2)n(CCC(=O)NCc2ccccc2C)c1C | -8.71% |
| CS(=O)(=O)c1ccc2nc(NC(=O)CS(=O)(=O)c3ccc(Cl)cc3)sc2c1 | -3.14% |
| CCOC(=O)CNC(=O)Nc1cc(C(=O)NCc2cccc(F)c2)ccc1N1CCCC1 | 5.35% |
| COc1ccccc1N1CCN(C/C(C)=C/c2ccccc2)CC1 | active: 74.1% |

| SMILES | inhibition |
| --- | --- |
| Cc1ccc(-c2nc3scc(CCNC(=O)c4cccc(Br)c4)n3n2)cc1 | -7.98% |
| COc1ccccc1NC(=O)C1CCCN(c2nnc(C)c3c(C)n(-c4ccccc4)nc23)C1 (configuration not stated) | -9.01% |
| Cc1ccc(C)n1-c1nnc(N2CCC(C(=O)NCc3ccccc3Cl)CC2)s1 | 3.04% |
| Cc1ccc(-c2nc(CCNC(=O)C(=O)Nc3ccc(C)c(C)c3)cs2)cc1 | 7.33% |
| COc1ccc(OC)c(NC(=O)CCN2CCN(c3ccccc3OC)CC2)c1 | active: 71.9% |
| Cc1oc(-c2ccccc2F)nc1CN1CCC(C(=O)NCCC2=CCCCC2)CC1 | active: 31.8% |
| COc1ccc(S(=O)(=O)N(Cc2nc(-c3ccc(C)cc3)no2)C2CCCCC2)cc1 | 16.2% |
| O=C1[C@@H]2CSC(c3ccc(F)cc3)N2C(=O)N1c1ccc(Cl)cc1 (some centres not stated) | -10.9% |
| COc1ccc(CNC(=O)c2cccc(N3CCCS3(=O)=O)c2)cc1 | -4% |
| CCc1ccc(-n2c(=O)c3c4c(sc3n(Cc3ccc(F)cc3)c2=O)CCCC4)cc1 | 11.6% |
| Nc1ncc(S(=O)(=O)NCc2cccc(Cl)c2)cn1 | -15.5% |
| Cc1ccc2oc(=O)c3cnn(CC(=O)NCc4ccccc4Cl)c3c2c1 | -11.9% |
| CCSC1=N/C(=C\c2ccc3c(c2)OCO3)C(=O)S1 | active: 30.4% |
| Cc1ccccc1CNC(=O)c1c(C)oc2c1C1=NCCN1C=N2 | -2.67% |
| CCc1cc(=O)oc2cc(C)cc(OCC(=O)NC(Cc3c[nH]c4ccc(O)cc34)C(=O)O)c12 (configuration not stated) | active: 48.3% |
| C/C(=N\OCc1cccc(C(=O)O)c1)c1ccc(Cl)cc1 | active: 55.7% |
| Cc1ccccc1Cn1cc(S(=O)(=O)c2ccc(Cl)cc2)c(=O)c2cc3c(cc21)OCO3 | 15.7% |
| O=c1c(O)c(-c2cccs2)oc2ccc(Cl)cc12 | active: 51.4% |
| COc1cccc(N2CCN(C(=O)C3CCCN(S(=O)(=O)c4ccc(Br)s4)C3)CC2)c1 (configuration not stated) | 3.25% |
| Cc1c(NC(=O)c2nc3ccccc3n(C)c2=O)cccc1[N+](=O)[O-] | 4.41% |
| CC(C)c1ccc(NC(=O)CSc2ncc3c(n2)-c2ccccc2N(C)S3(=O)=O)cc1 | -5.95% |

| SMILES | inhibition |
| --- | --- |
| COc1ccc(OCCn2c(C3CC(=O)N(c4ccc(F)cc4)C3)nc3ccccc32)cc1 (configuration not stated) | -1.95% |
| COc1ccc(Nc2cc(C(=O)NCCc3ccccc3)c3ccccc3n2)cc1OC | 11.7% |
| CCCN(C(=O)Cn1ncc2c(=O)oc3ccccc3c21)c1cccc(C)c1 | 12.7% |
| CCCCOC(=O)c1ccc(NS(=O)(=O)c2c(C)nc3scc(C)n3c2=O)cc1 | -6.79% |
| Cc1ccc(CNC(=O)Cn2ncc3c(C)n(Cc4ccc(Cl)cc4)c(C)c3c2=O)cc1 | 2.1% |
| COc1ccccc1Nc1cc(C)nc2nc(-c3ccccc3)nn12 | 7.57% |
| CCC(C)NC(=O)Cn1c(=O)n(Cc2ccc(C(=O)NCCCOC)cc2)c(=O)c2ccccc21 (configuration not stated) | -15.5% |
| Cc1ccc(NC(=O)c2ccc(NC(=O)N3CCSc4ncccc43)cc2)cc1Cl | 5.37% |
| CCc1ccc(-n2nc3cc(C)c(NC(=O)c4cc(Cl)ccc4OC)cc3n2)cc1 | 0.927% |
| O=C(Cn1cc(S(=O)(=O)Cc2ccc(F)cc2)c2ccccc21)NCCc1ccccc1 | -4.31% |
| COc1ccc(NS(=O)(=O)c2cc3[nH]c(=O)c(=O)[nH]c3cc2C)cc1OC | -2.24% |
| Cc1ccc2c(=O)cc(C(=O)Nc3sc4c(c3C(=O)NCc3ccco3)CCC4)oc2c1C | 5.26% |
| Cn1c(=O)c2nc(SCC(=O)Nc3cc(Cl)ccc3Cl)n(C)c2n(C)c1=O | 8.53% |
| c1ccc(CNc2nc3ccccc3c3nc(-c4ccccc4)nn23)cc1 | -1.97% |
| NC(=O)CSc1nc2c(oc3ccccc32)c(=O)n1-c1ccccc1F | 6.87% |
| COc1cccc(CNC(=O)CSc2ccc(-c3sc(-c4ccccc4)nc3C)nn2)c1 | 3.25% |
| CCOc1ccc(C(=O)NCC(c2ccco2)S(=O)(=O)c2ccc(C)cc2)cc1 (configuration not stated) | -27.4% |
| COc1ccc(Cl)cc1NC(=O)N1CCC(CN2CCc3ccccc3C2)CC1 | 13.5% |
| Cc1ccc(NC(=O)Cn2nnnc2-c2ccccc2N)cc1 | -3.48% |
| O=c1c2cc3c(cc2nc2sc(Nc4ccc(F)cc4F)nn12)OCO3 | 11% |
